Measured values published in the supplement of paper PMC6657886.
MIC of clinical N. gonorrhoeae isolates (2015-2017) by agar dilution on GC agar with 1% IsoVitaleX (ranges not stated); higher = less susceptible. No active / inactive call per row; the paper counts benzylpenicillin above 1 and ceftriaxone above 0.125 mg/L as resistant (EUCAST). The method is stated for benzylpenicillin and ceftriaxone and assumed for the other drugs. '<=' is inferred from pile-ups at the end values. Isolates are numbered anew.

Key:
Assay in all cases: Agar dilution on enriched GC agar; resistance determinants by microarray.
benzylpenicillin = compound: CC1(C)S[C@@H]2[C@H](NC(=O)Cc3ccccc3)C(=O)N2[C@H]1C(=O)O [benzylpenicillin]
ceftriaxone = compound: CO/N=C(\C(=O)N[C@@H]1C(=O)N2C(C(=O)O)=C(CSc3nc(=O)c(O)nn3C)CS[C@H]12)c1csc(N)n1 [ceftriaxone]
spectinomycin = compound: CN[C@@H]1[C@H](O)[C@H](NC)[C@H]2O[C@@]3(O)C(=O)C[C@@H](C)O[C@H]3O[C@@H]2[C@H]1O [spectinomycin]
tetracycline = compound: CN(C)[C@@H]1C(O)=C(C(N)=O)C(=O)[C@@]2(O)C(O)=C3C(=O)c4c(O)cccc4[C@@](C)(O)[C@H]3C[C@@H]12 [tetracycline]
azithromycin = compound: CC[C@H]1OC(=O)[C@H](C)[C@@H](O[C@H]2C[C@@](C)(OC)[C@@H](O)[C@H](C)O2)[C@H](C)[C@@H](O[C@@H]2O[C@H](C)C[C@H](N(C)C)[C@H]2O)[C@](C)(O)C[C@@H](C)CN(C)[C@H](C)[C@@H](O)[C@]1(C)O [azithromycin]

Row | Test System | MIC (benzylpenicillin) [µg/mL] | MIC (ceftriaxone) [µg/mL] | MIC (spectinomycin) [µg/mL] | MIC (tetracycline) [µg/mL] | MIC (azithromycin) [µg/mL]
1 | Neisseria gonorrhoeae isolate 401 (blaTEM plasmid: no, gyrA: Phe91, Asn95, mtrR promoter: -35delA, parC: Ser87, Gly91, penA: ins345Asp, ponA: Pro421, porB: wild type, rpsJ: Met57, tetM plasmid: no) | 0.25 | ≤ 0.002 | 32 | 2 | 0.5
2 | Neisseria gonorrhoeae isolate 350 (blaTEM plasmid: no, gyrA: Phe91, Asn95, mtrR promoter: -35delA, parC: Arg87, Glu91, penA: ins345Asp, ponA: Pro421, porB: Lys 120, Gly121, rpsJ: Met57, tetM plasmid: no) | 0.5 | 0.004 | 16 | 2 | 0.25
3 | Neisseria gonorrhoeae isolate 490 (blaTEM plasmid: yes, gyrA: Phe91, Asp95, mtrR promoter: wild type, parC: wild type, penA: ins345Asp, ponA: wild type, porB: wild type, rpsJ: Met57, tetM plasmid: yes) | ≥ 32 | ≤ 0.002 | 16 | 16 | 0.12
4 | Neisseria gonorrhoeae isolate 154 (blaTEM plasmid: no, gyrA: wild type, mtrR promoter: wild type, parC: wild type, penA: ins345Asp, ponA: wild type, porB: wild type, rpsJ: wild type, tetM plasmid: no) | 0.06 | 0.008 | 32 | 0.12 | 0.015
5 | Neisseria gonorrhoeae isolate 13 (blaTEM plasmid: no, gyrA: Phe91, Gly95, mtrR promoter: -35delA, parC: Arg87, Glu91, penA: ins345Asp, ponA: Pro421, porB: Asp120, Ala121, rpsJ: Met57, tetM plasmid: no) | 0.5 | ≤ 0.002 | 8 | 1 | 0.5
6 | Neisseria gonorrhoeae isolate 280 (blaTEM plasmid: no, gyrA: wild type, mtrR promoter: wild type, parC: wild type, penA: wild type, ponA: wild type, porB: wild type, rpsJ: wild type, tetM plasmid: no) | ≤ 0.015 | ≤ 0.002 | 16 | 0.25 | 0.06
7 | Neisseria gonorrhoeae isolate 199 (blaTEM plasmid: no, gyrA: Phe91, Asn95, mtrR promoter: wild type, parC: wild type, penA: ins345Asp, ponA: Pro421, porB: Asn120, Asp121, rpsJ: wild type, tetM plasmid: no) | 0.5 | 0.015 | 16 | 2 | 0.5
8 | Neisseria gonorrhoeae isolate 431 (blaTEM plasmid: no, gyrA: Phe91, Asn95, mtrR promoter: -35delA, parC: Arg87, Glu91, penA: ins345Asp, ponA: wild type, porB: Gly120, Gly121, rpsJ: Met57, tetM plasmid: yes) | 0.25 | 0.008 | 32 | 32 | 0.25
9 | Neisseria gonorrhoeae isolate 415 (blaTEM plasmid: no, gyrA: wild type, mtrR promoter: wild type, parC: wild type, penA: wild type, ponA: wild type, porB: wild type, rpsJ: wild type, tetM plasmid: no) | ≤ 0.015 | ≤ 0.002 | 32 | 0.25 | 0.12
10 | Neisseria gonorrhoeae isolate 20 (blaTEM plasmid: no, gyrA: wild type, mtrR promoter: wild type, parC: wild type, penA: ins345Asp, ponA: wild type, porB: wild type, rpsJ: wild type, tetM plasmid: no) | 0.06 | 0.008 | 16 | 0.12 | 0.12
11 | Neisseria gonorrhoeae isolate 169 (blaTEM plasmid: no, gyrA: wild type, mtrR promoter: wild type, parC: wild type, penA: ins345Asp, ponA: wild type, porB: wild type, rpsJ: wild type, tetM plasmid: no) | 0.06 | 0.004 | 32 | 0.06 | 0.004
12 | Neisseria gonorrhoeae isolate 364 (blaTEM plasmid: no, gyrA: wild type, mtrR promoter: wild type, parC: Arg87, Glu91, penA: ins345Asp, ponA: wild type, porB: wild type, rpsJ: wild type, tetM plasmid: no) | 0.5 | 0.004 | 32 | 0.5 | 0.015
13 | Neisseria gonorrhoeae isolate 44 (blaTEM plasmid: yes, gyrA: wild type, mtrR promoter: wild type, parC: wild type, penA: ins345Asp, ponA: wild type, porB: wild type, rpsJ: wild type, tetM plasmid: yes) | 16 | ≤ 0.002 | 16 | 32 | 0.06
14 | Neisseria gonorrhoeae isolate 214 (blaTEM plasmid: no, gyrA: Phe91, Asp95, mtrR promoter: wild type, parC: Ser87, Gly 91, penA: ins345Asp, ponA: wild type, porB: Asn120, Asp121, rpsJ: wild type, tetM plasmid: no) | 0.5 | 0.015 | 16 | 2 | 0.12
15 | Neisseria gonorrhoeae isolate 514 (blaTEM plasmid: no, gyrA: Phe91, Gly95, mtrR promoter: -35delA, parC: Arg87, Glu91, penA: ins345Asp, ponA: Pro421, porB: wild type, rpsJ: Met57, tetM plasmid: no) | 0.03 | ≤ 0.002 | 16 | 0.25 | 0.06
16 | Neisseria gonorrhoeae isolate 108 (blaTEM plasmid: no, gyrA: wild type, mtrR promoter: wild type, parC: wild type, penA: ins345Asp, ponA: wild type, porB: wild type, rpsJ: Met57, tetM plasmid: no) | 0.25 | ≤ 0.002 | 4 | 0.5 | 0.015
17 | Neisseria gonorrhoeae isolate 8 (blaTEM plasmid: yes, gyrA: Phe91, Asn 95, mtrR promoter: wild type, parC: Asn87, Lys91, penA: ins345Asp, ponA: Pro421, porB: wild type, rpsJ: Met57, tetM plasmid: yes) | ≥ 32 | 0.004 | 16 | 64 | 0.06
18 | Neisseria gonorrhoeae isolate 75 (blaTEM plasmid: no, gyrA: Phe91, Gly95, mtrR promoter: -35delA, parC: Arg87, Glu91, penA: ins345Asp, ponA: Pro421, porB: Asp120, Ala121, rpsJ: Met57, tetM plasmid: no) | 1 | 0.03 | 32 | 2 | 0.06
19 | Neisseria gonorrhoeae isolate 436 (blaTEM plasmid: no, gyrA: Phe91, Asn95, mtrR promoter: -35delA, parC: Arg87, Glu91, penA: ins345Asp, ponA: Pro421, porB: Lys 120, Asn 121, rpsJ: Met57, tetM plasmid: no) | 1 | 0.004 | 16 | 1 | 0.25
20 | Neisseria gonorrhoeae isolate 497 (blaTEM plasmid: no, gyrA: wild type, mtrR promoter: wild type, parC: wild type, penA: wild type, ponA: wild type, porB: wild type, rpsJ: wild type, tetM plasmid: no) | ≤ 0.015 | ≤ 0.002 | 16 | 0.12 | 0.06
21 | Neisseria gonorrhoeae isolate 183 (blaTEM plasmid: no, gyrA: Phe91, Gly95, mtrR promoter: -35delA, parC: Arg87, Glu91, penA: ins345Asp, ponA: Pro421, porB: wild type, rpsJ: Met57, tetM plasmid: no) | 1 | 0.008 | 32 | 1 | 0.03
22 | Neisseria gonorrhoeae isolate 209 (blaTEM plasmid: no, gyrA: Phe91, Asn95, mtrR promoter: -35delA, parC: Arg87, Glu91, penA: ins345Asp, ponA: Pro421, porB: wild type, rpsJ: Met57, tetM plasmid: no) | 1 | 0.015 | 32 | 1 | 1
23 | Neisseria gonorrhoeae isolate 438 (blaTEM plasmid: no, gyrA: Phe91, Gly95, mtrR promoter: wild type, parC: Arg87, Glu91, penA: ins345Asp, ponA: Pro421, porB: Asp120, Ala121, rpsJ: Met57, tetM plasmid: no) | 1 | 0.004 | 32 | 0.5 | 0.015
24 | Neisseria gonorrhoeae isolate 51 (blaTEM plasmid: no, gyrA: Phe91, Gly95, mtrR promoter: wild type, parC: Arg87, Glu91, penA: ins345Asp, ponA: Pro421, porB: wild type, rpsJ: Met57, tetM plasmid: no) | 0.5 | 0.008 | 32 | 0.5 | 0.008
25 | Neisseria gonorrhoeae isolate 474 (blaTEM plasmid: no, gyrA: wild type, mtrR promoter: wild type, parC: wild type, penA: ins345Asp, ponA: Pro421, porB: wild type, rpsJ: wild type, tetM plasmid: no) | 0.12 | ≤ 0.002 | 16 | 0.06 | 0.06
